Over roughly 33,000 sequences, “E-score (-0.5 to 0.5)” has its median near -0.011; the highest 2% begin near 0.28. Some of the results follow.
What follows are sequences tested against T1, Gcr1 (UniProt P07261) (assay: PBM E-score (8-mer binding enrichment) (E-score (-0.5 to 0.5)); higher = stronger / more preferred TF binding; most listed sequences are background and not binding sites). Conditions: protein concentration: 100 nM; construct: GST-full length.
T1 sequence: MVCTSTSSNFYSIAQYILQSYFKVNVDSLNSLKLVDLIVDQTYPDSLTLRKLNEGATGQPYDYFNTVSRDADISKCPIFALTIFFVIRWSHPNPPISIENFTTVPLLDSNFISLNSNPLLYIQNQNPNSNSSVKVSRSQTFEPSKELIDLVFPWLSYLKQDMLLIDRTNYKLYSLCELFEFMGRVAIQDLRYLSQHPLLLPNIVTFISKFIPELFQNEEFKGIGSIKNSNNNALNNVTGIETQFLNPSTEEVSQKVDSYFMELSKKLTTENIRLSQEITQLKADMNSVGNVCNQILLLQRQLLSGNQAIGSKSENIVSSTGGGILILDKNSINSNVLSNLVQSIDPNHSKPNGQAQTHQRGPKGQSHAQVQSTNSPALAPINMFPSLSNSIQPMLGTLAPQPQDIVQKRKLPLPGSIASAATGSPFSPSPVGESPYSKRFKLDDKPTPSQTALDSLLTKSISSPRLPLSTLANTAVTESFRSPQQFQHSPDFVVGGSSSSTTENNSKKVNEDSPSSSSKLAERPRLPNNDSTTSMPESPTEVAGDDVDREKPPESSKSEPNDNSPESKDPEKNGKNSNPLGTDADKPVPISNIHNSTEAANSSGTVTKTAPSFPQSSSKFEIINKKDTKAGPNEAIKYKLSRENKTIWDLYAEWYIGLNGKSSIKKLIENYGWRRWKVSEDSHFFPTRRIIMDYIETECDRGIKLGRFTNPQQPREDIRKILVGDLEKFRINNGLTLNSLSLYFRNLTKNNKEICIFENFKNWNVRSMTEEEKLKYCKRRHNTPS
Method: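 Universal 'all 10-mer' protein binding microarrays (Agilent AMADID 015681) probed with GST-tagged S. cerevisiae TFs (full-length or DBD) made by in vitro transcription/translation (PURExpress), about 100-200 nM. Bound TF was detected with fluorescent anti-GST. Each ungapped 8-mer (which stands for itself and its reverse complement) is scored by the PBM enrichment score (E-score), a modified Wilcoxon-Mann-Whitney statistic from -0.5 to +0.5, computed with the Universal PBM Analysis Suite. Scale: above 0.35 generally sequence-specific binding.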

Sequence	PBM E-score
ACGCGCCG	0.0475
AATCCATG	0.00781
AACAGTTA	0.224
CCGCGAAC	-0.209
AGAGGAGC	0.00804
CACCCGTA	-0.113
ACTTCATG	0.0318
ATCGTCCG	-0.109
AAATTCAT	-0.0462
AGCCCTAT	0.00431
CTTACACC	-0.13
AAAAACAT	-0.0212
CTTGGACA	0.0367
ACCCCTAC	0.0631
AATAGGTG	0.185
ACACCCGC	-0.0742
AAGTATTA	0.0171
GACCAAAC	-0.233
GCTCAGCA	-0.0633
TAGTCCGA	-0.214
AGCCGGAT	0.0709
CGTACTAC	-0.0841
AATCTGGT	0.281
CACAACAA	0.00775
AAACTTTA	0.153

Sequence	PBM E-score
CAAGTGGA	0.181
CCTGAGGA	0.173
CAGTCGCC	0.0419
TGAACCCA	0.0317
AGTTTTTA	0.00042
AGATTCAT	-0.042
AGGAAGCA	0.13
CGTAGAAA	0.027
GAAACTTA	0.184
ACGTAGGG	-0.0453
GCTTCGAC	-0.103
AGTCAGGG	-0.108
ACTATGTC	0.0549
AGCCTTGC	-0.146
ATAGGCTG	-0.0658
CCAAATGG	0.184
CGGTTCGC	-0.0757
AAGGCGTA	0.0455
AATTTAGT	0.182
AGATGGAA	-0.00047
TGCGGCCA	-0.0217
GTGGTTGA	0.0768
GAGGATCA	-0.214
CGAGCAGC	0.107
AGGACTTA	-0.244

Sequence	PBM E-score
CCTGCATA	-0.0109
CCCAGTAC	0.0549
AATGGGTA	-0.0165
GCCCCTCC	0.151
CGCGGATC	-0.068
CGCACAGC	-0.133
AACGGTAT	-0.0407
GGTAAACA	0.028
AAATCTGG	0.292
AGCTGAAC	0.0737
AAGGGGGC	-0.0954
AGTGAAGC	0.0364
ATGGGGAA	0.192
GTGATCAC	0.183
AATCGACC	-0.0725
AGTTCCCC	0.105
AAAGCATC	0.216
TACTCGAA	0.0843
AAGTAAGG	-0.0793
ATCGTAGG	-0.0574
CACCAGTC	-0.02
GCGACACA	-0.0641
CGTAGATA	-0.0503
CCGGGCAA	-0.0158
AGATTGCA	-0.177

Sequence	PBM E-score
ACTGTGGG	-0.192
ATATAATG	-0.137
CGAGTGAC	0.0417
GAGTAGCC	-0.107
TCCTTTAA	0.185
CCCGCGTC	0.174
GTGTCGCA	-0.113
AATGTGCC	-0.315
GGGAGACA	0.00118
CCGCGAGC	-0.0368
GCGTTACC	-0.0245
GCGGATTA	-0.0372
TAAGGTAA	-0.0367
GCTGCAGC	-0.135
ACTTTGCT	-0.0659
CGGGTTAC	-0.0158
GTGTAAGA	-0.0682
GGAACGAA	0.115
ACCCCTTA	-0.0381
CTAGAGAG	-0.145
CTACCGTC	-0.0298
GAGGTGTA	-0.075
CAAGGGTG	-0.101
CTTCAGGC	-0.221
CGCTAGAG	-0.189

Sequence	PBM E-score
ATCATTCA	-0.0571
CGATTAGC	-0.0472
AACGGATC	0.0591
CTGCGCGA	-0.111
ATATGTGG	0.0312
AGACAACT	-0.118
GCTTCGAA	0.0428
GAGAGAGA	-0.115
CGTCATAC	-0.0511
AATTCGGC	0.0611
GCCTTTAA	0.0704
CGATTCGC	0.0104
ACGTAGAC	-0.0213
GCCGACGA	0.00816
ACTATAAC	-0.0682
CGAACTAC	0.00469
AGAGGTCC	-0.0649
CTGAGAGC	0.00285
AGATGCGC	0.103
ACAGTAGC	-0.133
GATTGCAA	-0.00101
CTGACATA	-0.0528
ACTATTCG	-0.0474
CGGCACTA	-0.0377
CTTTCGTC	-0.02

Sequence	PBM E-score
AAATCTTA	0.111
CCGCATAA	0.203
CCAAGAAG	0.0977
AGGACACT	-0.0873
CCAATCGG	-0.00989
TACTAGGA	0.122
ACCGAGCC	-0.31
CCCGGTAG	-0.0486
ATCTTACA	-0.0663
CTCATCCA	-0.128
TTGGGAAA	0.0142
CGTAAAGC	-0.164
TAATATCA	0.216
GACGAGAA	-0.104
GGCGCACA	-0.136
AGAAAAGC	-0.254
TACAATAA	-0.0889
AGCGACGA	-0.264
TACCATAA	-0.0155
GGGACGAC	-0.263
ATGTTGCA	0.131
AAAGGTCA	-0.149
GTGCCACA	-0.0702
CCCCGCTA	0.0143
GGTCGTTA	-0.0908

Sequence	PBM E-score
TCACCAGA	-0.053
GGGTAGCA	0.0203
CCTAACCA	-0.0514
GCCCAATA	0.201
ATTGTCAC	-0.199
AGAGACCG	0.101
CATGGAGC	-0.0926
GCCGTATA	0.197
GCACCTCC	0.0586
CTTGGAGC	-0.0903
AAAGCGGA	0.00092
CGGCCGTC	-0.245
CATCCGAA	0.0797
CACTGCCC	-0.202
AGGCGGCG	0.107
AAGAGCGC	-0.0963
GGAACACA	0.00024
ACCCCCGG	-0.0678
CGGGTAAG	-0.148
ACTATCCC	-0.207
CGTTAAAA	-0.00724
CGACACAC	-0.0424

From the supplement of paper PMC3334620
